We go through 40 compounds from the supplement of paper PMC6660600, “Odorant Inhibition in Mosquito Olfaction” (iScience, 2019).

Counter-ions that a name gives are not always drawn. This is one part of the list. Repeats are few or missing, and single values can be far off.

The experiment has as its system CquiOR32-CquiOrco. The experiment can be described thus: current response class (signed ordinal: positive = inward/excitatory, negative = outward/inhibitory) (ordinal score (-3..3)); higher = stronger inward (excitatory) current. The note with it: 1 mM; holding potential (mV): -80. On the procedure:
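Xenopus oocytes co-expressing Culex quinquefasciatus CquiOR32 with CquiOrco were challenged by two-electrode voltage clamp (holding -80 mV) with a panel of about 200 odorants at 1 mM source dose (2 s stimulus). The response was scored qualitatively: + to +++ for weak to strong inward currents, x to xxx for weak to strong outward (inhibitory, reverse) currents, +/- and x/- for very weak currents (S/N 2-5), and - for no response. Scale: negative = stronger reverse/inhibitory current.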
With `CCCCCCCCCCCC(C)=O` [2-tridecanone], the current response class was inactive: 0. The figure for `CC/C=C\CCO` [(Z)-3-hexen-1-ol] is active: 1; for `CC(C)=CCCC(C)CCO` (stereo not given) [citronellol] it is inactive: 0; for `C/C=C/C=C/C=O` [2,4-hexadienal] it is inactive: 0. Regarding `CSC` [dimethyl sulfide], the current response class is inactive: 0.

`CCCCO` [1-butanol]: the current response class is inactive: 0.

`CC(=O)OCC(C)C` [isobutyl acetate]: the current response class was inactive: 0.

Turning to `C=CC(C)(O)CCC=C(C)CCC=C(C)C` (mixture of isomers) [nerolidol], the current response class is inactive: 0. Next, `Cc1cccc(O)c1C` [2,3-dimethylphenol]: inactive: 0. The figure for `CCCc1ccc(O)c(OC)c1` [2-methoxy-4-propylphenol] is inactive: 0. `CCCCCCCC=O` [octanal]: the current response class was inactive: 0. `CCCCN(CCC(=O)OCC)C(C)=O`: the current response class was active: -1. The figure for `CCCCCOC(C)=O` [N-pentylacetate] is inactive: 0. As to `CCCCCCCC(C)=O` [2-nonanone], the current response class was inactive: 0.

`CCC/C=C/CO` [(E)-2-hexen-1-ol]: the current response class is active: 2. The figure for `CC(O)c1ccccc1` (stereo not given) [1-phenylethanol] is active: 2; for `CCCCC=O` [pentanal] it is inactive: 0.

For the compound `COC(=O)/C=C(\C)CCC=C(C)C` [methyl geranate], the current response class was inactive: 0. The figure for `COC(=O)c1ccccc1N(C)C` [methyl N,N-dimethylanthranilate] is inactive: 0. The figure for `CCCCCCCCN` [octylamine] is inactive: 0; for `CCCC(=O)OCC` [ethyl butyrate] it is inactive: 0; for `COC(C)=O` [methyl acetate] it is active: 1. Next, `Cc1ncsc1C` [4,5-dimethylthiazole]: active: 3; `CCCCCCCCCO` [1-nonanol]: inactive: 0. As to `CC(C)CC=O` [isovaleraldehyde], the current response class is inactive: 0. For the compound `Cc1ccc(C(C)C)c(O)c1` [thymol], the current response class is active: -1. The figure for `CCCCCC/C=C\CCCCCCCC(=O)O` [palmitoleic acid] is inactive: 0; for `c1ccc2[nH]ccc2c1` [indole] it is inactive: 0; for `CC1=CCC2CC1C2(C)C` (stereo not drawn) [α-pinene] it is active: -0.5. Next, `CC(C)=CCC/C(C)=C\CO` [nerol]: active: -2; `C=C/C(C)=C/CC=C(C)C` [ocimene]: active: -0.5; `CCCCCCCCCCCCCCCC(=O)OC` [methyl palmitate]: inactive: 0. Next, `C=CC(C)(CCC=C(C)C)OC=O` (stereo not given) [linalyl formate]: active: -1; `Cc1cccc(C(=O)Nc2ccccc2C(C)C)c1` [N-(2-isopropylphenyl)-3-methylbenzamide]: inactive: 0; `C1CCNC1` [pyrrolidine]: inactive: 0. In the case of `CC(C)(C)c1ccc(O)c(C(C)(C)C)c1` [2,4-di-tert-butylphenol], the current response class was inactive: 0.

For `CCCCN` [butylamine], the current response class is inactive: 0. The figure for `CC(O)C(C)O` (stereo not given) [2,3-butanediol] is inactive: 0; for `CC(=O)OC/C=C(\C)CCC=C(C)C` [geranyl acetate] it is inactive: 0. The figure for `Cc1ccc(C(C)C)cc1O` [carvacrol] is inactive: 0.
